This is one part of the list.

The subject of one test is HSkMC. In words: cytotoxicity call (relative viability < 0.9). The conditions noted are these: 10 µM.
The test system of a further test is HepG2. The experiment in a line: cytotoxicity call (relative viability < 0.9). The conditions noted are these: 10 µM.
The test system of the next test is S. aureus RN4220. The experiment in a line: growth inhibition call (relative growth <= 0.2). As to conditions: 50 µM.

For the compound `Cc1noc(C)c1NC(=O)N[C@@H]1C=C[C@H](CC(=O)N2CCN(C)CC2)O[C@@H]1CO`, the cytotoxicity call in the test with HSkMC and in the test on HepG2 was “inactive” throughout. The growth inhibition call with S. aureus RN4220 is “inactive”.
As for `Cc1noc(C)c1NC(=O)N(C)C[C@H]1Oc2ccc(NS(=O)(=O)c3cn(C)cn3)cc2C(=O)N([C@H](C)CO)C[C@H]1C`, the cytotoxicity call in the test on HSkMC and in the test with HepG2 was “inactive” throughout. Moreover, the growth inhibition call with S. aureus RN4220 is “inactive”.
Turning to `Cc1noc(C)c1S(=O)(=O)N(C)C[C@H]1OCc2cn(nn2)CCCC(=O)N([C@H](C)CO)C[C@H]1C`, the cytotoxicity call with HSkMC and in the test on HepG2 was “inactive” in each case. In addition, in the test with S. aureus RN4220, the growth inhibition call was “inactive”.
For the compound `C[C@@H]1CN([C@H](C)CO)C(=O)c2c(c3ccccc3n2C)-c2ccccc2CO[C@@H]1CN(C)C(=O)Nc1ccc(-c2ccccc2)cc1`, the cytotoxicity call in the test with HSkMC and with HepG2 was “inactive” throughout. Besides, the growth inhibition call with S. aureus RN4220 is “inactive”.
For the compound `COc1ccc(NC(=O)N(C)C[C@@H]2Oc3ccc(NS(C)(=O)=O)cc3CC(=O)N([C@@H](C)CO)C[C@H]2C)cc1`, the cytotoxicity call in the test on HSkMC and with HepG2 was “inactive” throughout. Also, the growth inhibition call in the test with S. aureus RN4220 is “inactive”.
Turning to `COc1cc(C=CC(=O)N2CCC=CC2=O)cc(OC)c1OC`, the cytotoxicity call in the test with HSkMC and with HepG2 was “active” in each case. In addition, the growth inhibition call with S. aureus RN4220 is “inactive”.
Turning to `NCC[C@@H]1CC[C@H](NC(=O)C2CC2)[C@H](CO)O1`, the cytotoxicity call in the test on HSkMC and with HepG2 was “inactive” in each case. In addition, in the test on S. aureus RN4220, the growth inhibition call is “inactive”.
Take `C[C@@H]1CN([C@@H](C)CO)C(=O)c2cc(NS(=O)(=O)c3cccs3)ccc2O[C@H]1CN(C)S(C)(=O)=O`: the cytotoxicity call in the test on HSkMC (human skeletal muscle cells) and in the test with HepG2 was “inactive” each time. Also, the growth inhibition call in the test with S. aureus RN4220 is “inactive”.
For `COc1ccc(S(=O)(=O)Nc2ccc3c(c2)C(=O)N([C@@H](C)CO)C[C@H](C)[C@@H](CN(C)C(=O)Nc2ccc4c(c2)OCO4)OCCCC[C@@H](C)O3)cc1`, the cytotoxicity call with HSkMC and in the test on HepG2 was “inactive” each time. Besides, the growth inhibition call in the test with S. aureus RN4220 is “inactive”.

The record behind these values is the antibiotic and cytotoxicity screens of Wong et al. (2023).
